The campaign covered roughly 310,000 compounds. About 2,200 (0.71%) showed an effect of 50% or more. Effects have a minus sign here. The list shows a part of the results.

Sequence of human ether-à-go-go-related gene (hERG) potassium channel (Q12809 whole entry, looked up): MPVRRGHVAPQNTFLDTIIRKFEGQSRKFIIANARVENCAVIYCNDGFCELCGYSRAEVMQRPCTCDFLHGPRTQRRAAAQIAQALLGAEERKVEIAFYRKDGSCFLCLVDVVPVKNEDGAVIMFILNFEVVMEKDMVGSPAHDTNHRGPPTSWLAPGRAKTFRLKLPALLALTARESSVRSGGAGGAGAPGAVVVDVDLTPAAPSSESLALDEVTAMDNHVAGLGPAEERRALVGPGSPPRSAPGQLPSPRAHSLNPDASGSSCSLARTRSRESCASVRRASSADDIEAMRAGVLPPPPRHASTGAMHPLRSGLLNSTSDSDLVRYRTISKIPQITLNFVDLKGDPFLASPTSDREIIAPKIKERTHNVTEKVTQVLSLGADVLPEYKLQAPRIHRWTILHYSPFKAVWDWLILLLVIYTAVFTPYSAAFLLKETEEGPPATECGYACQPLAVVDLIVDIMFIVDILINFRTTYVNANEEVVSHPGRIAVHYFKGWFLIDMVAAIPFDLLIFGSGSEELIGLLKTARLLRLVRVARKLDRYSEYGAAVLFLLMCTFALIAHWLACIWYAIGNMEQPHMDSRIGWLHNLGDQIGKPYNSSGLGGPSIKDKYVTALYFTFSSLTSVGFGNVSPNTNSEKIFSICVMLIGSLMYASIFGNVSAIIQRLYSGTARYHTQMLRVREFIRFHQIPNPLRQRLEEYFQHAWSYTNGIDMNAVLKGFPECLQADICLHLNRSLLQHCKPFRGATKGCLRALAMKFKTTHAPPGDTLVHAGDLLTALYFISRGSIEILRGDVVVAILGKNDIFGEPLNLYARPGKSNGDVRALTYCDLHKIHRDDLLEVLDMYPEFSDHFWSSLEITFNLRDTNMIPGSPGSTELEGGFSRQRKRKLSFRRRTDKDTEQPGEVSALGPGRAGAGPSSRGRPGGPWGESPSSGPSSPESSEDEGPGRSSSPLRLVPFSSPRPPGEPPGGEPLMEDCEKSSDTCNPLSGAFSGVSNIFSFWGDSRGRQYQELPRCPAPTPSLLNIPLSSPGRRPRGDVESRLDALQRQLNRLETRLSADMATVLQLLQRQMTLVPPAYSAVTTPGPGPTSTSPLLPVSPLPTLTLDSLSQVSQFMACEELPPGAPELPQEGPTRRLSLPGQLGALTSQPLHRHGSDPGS

This test concerns the target human ether-à-go-go-related gene (hERG) potassium channel (human, UniProt Q12809). As to the kind of experiment: primary screen, population patch clamp on CHO cells stably expressing hERG.
Regarding `Cc1cnc(NC(=O)C(C)N2CCN(C)CC2)s1.O=C(O)C(=O)O` (centres unmarked), the “hERG current change (%, negative = inhibition) at 1uM” value is recorded as 11.3%.

As to `C=CCn1c(NC(=O)c2ccco2)nc2ccccc21`, the “hERG current change (%, negative = inhibition) at 1uM” value is listed as 13.7%.

As for `CCCC(=O)Nc1cccc(-c2nc3ccccc3o2)c1`, the “hERG current change (%, negative = inhibition) at 1uM” value is given as 10.5%.

Take `CCC(=O)c1cn(Cc2ccccc2)c2ccccc12`: the “hERG current change (%, negative = inhibition) at 1uM” value is 7.53%.

In the case of `CCC(NC(=O)c1cc(COc2cncc(Cl)c2)on1)c1ccncc1` (centres unmarked), the “hERG current change (%, negative = inhibition) at 1uM” value is 14.3%.

For the compound `c1ccc(Cc2nnc3sc(-c4ccco4)nn23)cc1`, the “hERG current change (%, negative = inhibition) at 1uM” value is given as 7.98%.

For the compound `COc1cccc(CN2CCN(CC(=O)Nc3ccccc3Cl)CC2)c1`, the “hERG current change (%, negative = inhibition) at 1uM” value is -39.6%.

In the case of `CC(C)C(=O)N1CCC2(CC1)Oc1ccc(Cl)cc1C(=O)C21CC(c2ccc(Cl)cc2)=NO1` (centres unmarked), the “hERG current change (%, negative = inhibition) at 1uM” value was 7.04%.

In the case of `CCN(CC)c1cc(C)c2cc(NC(=O)c3ccccc3OC)ccc2n1`, the “hERG current change (%, negative = inhibition) at 1uM” value is given as -3%.

In the case of `O=C(Nc1ccc2c(c1)OCO2)Nc1ccccn1`, the “hERG current change (%, negative = inhibition) at 1uM” value came out at 9.53%.

On to `Cc1ccc(-n2nnc3c(=O)n(CC(=O)N4CCOCC4)cnc32)cc1`, for which the “hERG current change (%, negative = inhibition) at 1uM” value was -3.26%.

With `CCC(C)N1CCN(C(=O)COc2ccc3ccccc3c2)CC1.O=C(O)C(=O)O` (centres unmarked), the “hERG current change (%, negative = inhibition) at 1uM” value was -4.41%.

`CC(=O)c1c(O)cc(=O)n(-c2ccccc2)c1-c1ccc(C)cc1`: the “hERG current change (%, negative = inhibition) at 1uM” value was determined as 17.7%.

`Brc1cccc(/C=N/Nc2nn[nH]n2)c1`: the “hERG current change (%, negative = inhibition) at 1uM” value was found to be 10.9%.

`O=C(C1CCCN(c2ncnc3c2nc2n3CCCCC2)C1)N1CCN(c2ccccc2F)CC1` (centres unmarked): the “hERG current change (%, negative = inhibition) at 1uM” value is on record as 15.5%.

For the compound `CCC(C)(C)NC(=O)C(c1ccccc1Cl)N(C(=O)CCC(=O)Nc1cc(C)on1)c1ccc(NC(C)=O)cc1` (centres unmarked), the “hERG current change (%, negative = inhibition) at 1uM” value worked out at 15.8%.

For `CC1(C)CC(=O)c2sc(NS(=O)(=O)Cc3ccccc3)nc2C1`, the “hERG current change (%, negative = inhibition) at 1uM” value stood at 10.4%.

In the case of `COC(=O)[C@@]12CCCCN1[C@H](c1ccc(-c3ccc(F)cc3)c(OC)c1)[C@@H]1C(=O)N(C)C(=O)[C@@H]12.O=C(O)C(F)(F)F`, the “hERG current change (%, negative = inhibition) at 1uM” value came to 10.1%.

In the case of `C/C(CC(=O)NC(C)(C)C)=N\NC(=O)c1ccco1`, the “hERG current change (%, negative = inhibition) at 1uM” value is recorded as 4.35%.

Regarding `COc1ccc(C(=O)CCC(=O)N2CCN(c3ccc(C)cc3)C(C)C2)cc1` (centres unmarked), the “hERG current change (%, negative = inhibition) at 1uM” value is on record as 27.1%.

Regarding `CCOc1ccc2nc(C(C)O)[nH]c2c1` (centres unmarked), the “hERG current change (%, negative = inhibition) at 1uM” value turned out to be 6.97%.

With `COc1cc(NC(=O)c2ccco2)c(OC)cc1NC(=O)CSc1nnc(-c2cccs2)n1C`, the “hERG current change (%, negative = inhibition) at 1uM” value is listed as -24.7%.

Regarding `COc1ccccc1OCCCn1c(=O)oc2ccc(C)cc21`, the “hERG current change (%, negative = inhibition) at 1uM” value is -13.8%.

`CC(=O)N1N=C(c2cccnc2)OC1c1ccc(C(C)C)cc1` (centres unmarked): the “hERG current change (%, negative = inhibition) at 1uM” value was -9.04%.

Consider `COC(=O)c1cc(NC(=O)CN2CCc3cc4c(cc3C2)OCCCO4)cc(C(=O)OC)c1`, for which the “hERG current change (%, negative = inhibition) at 1uM” value is recorded as -2.38%.

In the case of `O=C1CN=C(c2cccs2)c2c(sc3c2CCCC3)N1`, the “hERG current change (%, negative = inhibition) at 1uM” value is -5.51%.

With `Cc1ccc2nc(SCC(=O)N3CCCC3)[nH]c2c1`, the “hERG current change (%, negative = inhibition) at 1uM” value was 7.88%.

Take `CCC(C)n1nccc1NC(=O)C(C)Cl` (centres unmarked): the “hERG current change (%, negative = inhibition) at 1uM” value is 16.3%.

Turning to `CC(=O)Nc1ccc(/C=C/c2nc(-c3ccccc3O)n[nH]2)cc1`, the “hERG current change (%, negative = inhibition) at 1uM” value was found to be 4.54%.

On to `COc1cccc(C2NC(=O)N(CCCC(=O)O)C(C)=C2C(=O)OCc2ccccc2)c1` (centres unmarked), for which the “hERG current change (%, negative = inhibition) at 1uM” value is 12%.

On to `O=C(CN1C(=O)COc2ccc(Cl)cc21)NCC1CCCO1` (centres unmarked), for which the “hERG current change (%, negative = inhibition) at 1uM” value is reported as 13%.

With `O=C1CSC(=Nc2ccc(F)cc2)N1`, the “hERG current change (%, negative = inhibition) at 1uM” value is given as -0.0698%.

Regarding `CC(=O)OC(c1nc2ccccc2c(=O)n1C1CC2(OC1=O)c1ccccc1N1C(=O)C(C)(C)N(O)C12)C(C)C` (centres unmarked), the “hERG current change (%, negative = inhibition) at 1uM” value was found to be 6.36%.

Turning to `Cc1ccc2c(c1)N(CC(=O)N1CCCCC1C)C(=O)CO2` (centres unmarked), the “hERG current change (%, negative = inhibition) at 1uM” value is on record as 12.5%.

`COc1cc(/C=C(/C#N)c2nc3ccccc3[nH]2)ccc1Oc1ncccc1[N+](=O)[O-]`: the “hERG current change (%, negative = inhibition) at 1uM” value is listed as 11.2%.

For the compound `Cn1c(N/N=C/c2cccs2)nc2c1c(=O)n(Cc1ccccc1)c(=O)n2C`, the “hERG current change (%, negative = inhibition) at 1uM” value is -2.26%.

Turning to `CCOC(=O)C1=C(N)OC2=C(C(=O)CCC2)C12C(=O)N(C)c1ccccc12` (centres unmarked), the “hERG current change (%, negative = inhibition) at 1uM” value was determined as 11.7%.

Take `CCCCN(C)CCNC(=O)C1CCN(S(=O)(=O)c2cccc3nsnc23)CC1`: the “hERG current change (%, negative = inhibition) at 1uM” value is 13%.

`COc1ccc(/C=C2/SC(=S)NC2=O)cc1OCc1ccccc1`: the “hERG current change (%, negative = inhibition) at 1uM” value is listed as 8.97%.

Regarding `COc1ccc(C2C(C#N)=C(N)Oc3n[nH]c(C)c32)cc1CSc1ccccn1` (centres unmarked), the “hERG current change (%, negative = inhibition) at 1uM” value was -2.32%.

Take `Cc1nc2ccccc2n1C1CCN(CC(=O)Nc2ccccc2Br)CC1`: the “hERG current change (%, negative = inhibition) at 1uM” value was 5.35%.

Regarding `Cc1cc(C(=O)N/N=C/c2cc(Cl)cc([N+](=O)[O-])c2O)n[nH]1`, the “hERG current change (%, negative = inhibition) at 1uM” value was determined as 6.43%.

On to `CCOC(=O)C1CCN(C(=O)c2cc3cc(Br)ccc3oc2=O)CC1`, for which the “hERG current change (%, negative = inhibition) at 1uM” value came out at 5.14%.

For `CS(=O)(=O)c1ccc(-c2cc(Br)sc2-c2ccc(F)cc2)cc1`, the “hERG current change (%, negative = inhibition) at 1uM” value came to 17.2%.

(Values after article PMC4336329 (PLoS ONE, 2015).)
